# Measured values: paper PMC9797988 (The Journal of Cell Biology, 2022)
# B1: myc-TNIP[…]E/S123E, 35S-labelled (natural protein)
# chain: not shown
# modifications: 35S-methionine labelled
# Key:
# GST-LC3C = GST-LC3C (human, UniProt Q9BXW4 1-126); assay: pull-down
# GST-[…]2 = GST-[…]2 (human, UniProt P60520); assay: pull-down
# Sequence of UniProt P60520 (P60520 whole entry): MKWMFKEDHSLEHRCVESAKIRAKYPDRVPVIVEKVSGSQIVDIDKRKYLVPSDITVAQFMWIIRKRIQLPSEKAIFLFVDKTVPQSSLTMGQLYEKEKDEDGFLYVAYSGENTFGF
# Sequence of GST-LC3C (Q9BXW4 1-126): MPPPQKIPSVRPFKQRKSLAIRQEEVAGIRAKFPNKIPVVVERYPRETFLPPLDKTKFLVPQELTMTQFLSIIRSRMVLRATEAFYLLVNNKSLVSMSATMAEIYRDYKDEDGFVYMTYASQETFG
binder,measurement,setting,value
B1,fold increase of binding against wild-type TNIP1,GST-LC3C,4.4 fold
same,fold increase of binding against wild-type TNIP1,GST-[…]2,5.8 fold
